Measurements from PubChem BioAssay AID1347417 (National Center for Advancing Translational Sciences (NCATS), 2020).
In all, about 120,000 compounds went through this assay and about 5,300 (4.4%) were called active. This list was built around the results that the source calls inconclusive (neither active nor inactive); the mix of calls is not that of the screen. Calls come from the whole dose curve; as a rule, active = well fitted inhibition curve with a large enough effect; inconclusive = small, poorly fitted or top-dose-only effect; inactive = no such curve, though single readings can be large or run the other way. Potencies beside an inconclusive call are fits to weak or partial responses and may not hold up.

Experiment: qHTS Primary assay for Inhibitors of Plasmodium falciparum Dd2 growth in vitro; note: nearly all actives have a fitted effect of over 65% in size;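 for activity, negative = inhibition: plate controls were DMSO vehicle for no effect and reference drug for full effect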
Settings: P. falciparum Dd2 growth, SYBR Green, 72 h; activity, negative = inhibition: at 28.9 µM (top of the series) unless noted; series mostly up to 28.9 µM
Outline: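 Infected erythrocytes (Dd2, 0.3% parasitemia, 2.5% hematocrit final) are added to compound in RPMI-1640/Albumax II medium, grown 72 h at 37C in low oxygen, then lysed with saponin/Triton-X containing SYBR Green and read by fluorescence.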
Potency is the fitted concentration of half-maximal effect; tags give direction and shape of the fitted curve.

| SMILES | Potency | activity, negative = inhibition | outcome |
| --- | --- | --- | --- |
| Cc1cccc(N2CCN(C(=O)CCn3ccn4nc5c(c4c3=O)CCCC5)CC2)c1 | inconclusive: 12.6 µM [inhibitor, single point] |  |  |
| O=C(Nc1cccc(Cl)c1)N1CC2CCCN2c2ccccc21 (configuration not stated) | active: 8.91 µM |  |  |
| COc1ccc(-c2nc3n(n2)C(c2ccccc2OC)C(C(=O)Nc2cccnc2)=C(C)N3)cc1 (configuration not stated) | inconclusive: 11.2 µM [inhibitor, single point] |  |  |
| CC(C)CNC(=O)N1CCCN(Cc2ccncc2)C(c2ccccc2)CC(=O)NCC1 (configuration not stated) | inconclusive: 7.08 µM [inhibitor, partial curve, poor fit] |  |  |
| CN1CC(=O)N(C2CCCNC2)Cc2c1ncnc2N1CCN(Cc2ccccc2)CC1 (configuration not stated) |  | inactive: 5.55% |  |
| O=C(C1CCC1)N1CCC(c2noc(CO)n2)C1 (configuration not stated) | inconclusive: 1.78 µM [inhibitor, single point] |  |  |
| CCOc1ccccc1NC(=O)c1c2c(nc3ccccc13)C(=O)N(C1CCCCC1)C2 | inconclusive: 11.2 µM [inhibitor, single point] |  |  |
| CCCCC(=O)N1CCc2cc(OC)c(OC)cc2C1COc1ccc(C(=O)OCC)cc1 (configuration not stated) | active: 11.2 µM |  |  |
| COCCCn1c(=N)c(C(=O)NC2CCCC2)cc2c(=O)n3cccc(C)c3nc21 | inconclusive: 3.55 µM [inhibitor, partial curve] |  |  |
| O=C(CC1CCCN(c2cnn(CC3CC3)c(=O)c2)C1)NCC1CC1 (configuration not stated) |  |  | inactive |
| CCOC(=O)c1cc(-c2ccc(C)cc2)n(CCCC(=O)Nc2cc(C)ccc2C)c1 | active: 11.2 µM |  |  |
| CC(C)(Oc1nn(Cc2cccc(Cl)c2)c2ccccc12)C(=O)NCC[S+](C)(=O)[O-] | inconclusive: 14.1 µM [inhibitor, partial curve, poor fit] |  |  |
| COCc1nncn1C1CCN(S(=O)(=O)c2ccc(F)c(Cl)c2)CC1 |  | inactive: 2.66% |  |
| CCOC(=O)c1ccc(NC(=O)CSc2nc3c(cc2C#N)N2CCC3CC2)cc1 | inconclusive: 0.794 µM [inhibitor, partial curve, poor fit] |  |  |
| CN(Cc1ccccc1)C(=O)c1ccnc(-c2nnc3ccc(N(C)c4ccccc4)nn23)c1 |  |  | inactive |
| COCCn1ncc(N2CCCC(CC(=O)Nc3cc(C)ccc3OC)C2)cc1=O (configuration not stated) | inconclusive: 14.1 µM [inhibitor, single point] |  |  |
| CN1CCCCCCN(C(=O)c2cc(CN3CCOCC3)on2)[C@H]2CCC[C@H]2C1=O | inconclusive: 6.31 µM [inhibitor, partial curve] |  |  |
| O=C(N1CCC2(CC1)CC(Cc1nc(-c3cnccn3)no1)CCO2)C1(c2ccccc2)CC1 (configuration not stated) | inconclusive: 7.94 µM [inhibitor, partial curve] |  |  |
| CCOc1c(CNCCSc2nnnn2C)cccc1OC | inconclusive: 0.0398 µM [inhibitor, full curve, poor fit] |  |  |
| CCN(CC1CCCN(CCc2cccc(F)c2)C1)C(=O)CCc1ccccn1 (configuration not stated) | inconclusive: 8.91 µM [inhibitor, partial curve, poor fit] |  |  |
| CCn1nccc1C(=O)N1C[C@@H](Oc2cccnc2)C[C@H]1C(=O)NCCOC |  | inactive: 21.8% |  |
| Cc1cccc(C)c1NC(=O)C(=O)NCC(c1ccc2c(c1)OCO2)N1CCN(C)CC1 (configuration not stated) | inconclusive: 17.8 µM [inhibitor, single point] |  |  |
| Cc1ncccc1C(=O)N1CC(=O)N(C2CCCCC2)CC(OCc2ccccc2)C1 (configuration not stated) |  | inactive: -5.47% |  |

| SMILES | Potency | activity, negative = inhibition | outcome |
| --- | --- | --- | --- |
| COc1ccc(CNC(=O)C(CC(C)C)NS(=O)(=O)c2ccc3c(c2)oc(=O)n3C)cc1 (configuration not stated) |  | inactive: 46% |  |
| COc1ccc(Cl)cc1-c1ccc2c(c1)C(=O)N1CC[C@H](NC(=O)c3cccs3)C[C@H]1C(=O)N2 | inconclusive: 8.91 µM [inhibitor, partial curve] |  |  |
| Cc1ccc(S(=O)(=O)c2cn(Cc3ccccc3)c3cc(N4CCCC4)c(F)cc3c2=O)c(C)c1 | active: 12.6 µM |  |  |
| O=C1CN(Cc2ccc(-c3cncnc3)cc2)CCN1c1nccc(Cl)n1 | inconclusive: 20 µM [inhibitor, single point] |  |  |
| OC[C@@H]1CN(Cc2ccccc2OC(F)(F)F)C[C@H]1c1ccncc1 | inconclusive: 4.47 µM [inhibitor, partial curve, poor fit] |  |  |
| Cc1ccc(C)c(S(=O)(=O)c2nnn3c2nc(NC2CCCC2)c2sccc23)c1 | inconclusive: 11.2 µM [inhibitor, single point] |  |  |
| CC1=C[C@@H](CNC(=O)c2ccncc2)[C@H](C(C)C)C[C@H]1CC(=O)N1CCCC1 | inconclusive: 31.6 µM [inhibitor, single point] |  |  |
| COc1ccc(-c2nn(-c3ccccc3)cc2CN2CCCC(C#N)C2)c(F)c1 (configuration not stated) | inconclusive: 12.6 µM [inhibitor, single point] |  |  |
| Cc1cc(C)cc(NC(=O)C2CCN(C(=O)c3nnn4cc(C)[nH]c(=O)c34)CC2)c1 |  |  | inactive |
| O=C1c2c(nc(COc3ccc(Cl)cc3)n2Cc2ccccc2)NCCN1CC1CCOCC1 |  | inactive: -14.5% |  |
| COc1ccc2[nH]c3c(c2c1)CCNC31CCN(C(=O)c2cc(C)[nH]n2)CC1 | inconclusive: 2.82 µM [inhibitor, single point] |  |  |
| Cc1ccc(-n2c(C)nc3c(cnn3-c3ccccc3)c2=O)cc1 |  | inactive: 14.3% |  |
| COc1cccc(CC(=O)NCc2nnc3cc(-c4nc(C(C)C)no4)ccn23)c1 | inconclusive: 3.98 µM [inhibitor, partial curve] |  |  |
| COc1ccc2cc(C3CN(C(=O)c4cc(C(C)=O)n[nH]4)CCO3)ccc2c1 (configuration not stated) | inconclusive: 14.1 µM [inhibitor, single point] |  |  |
| CN1C(=O)Cc2cc(S(=O)(=O)NCc3ccccc3Cl)ccc21 | inconclusive: 20 µM [inhibitor, partial curve, poor fit] |  |  |
| Cc1ccc(CN2CCN(C(=O)C3Cn4cccc4C(=O)N3CC(C)C)CC2)cc1 (configuration not stated) | inconclusive: 17.8 µM [inhibitor, single point] |  |  |
| COc1cccc(CN2Cc3cc(NC(=O)c4cccs4)ccc3OCC2=O)c1 |  |  | inactive |
| Cn1ccc2c(NC(=O)C[C@H]3NC(=O)c4ccccc4NC3=O)cccc21 |  |  | inactive |
| CNC(=O)[C@@H]1CN(C(=O)c2ccc(Cl)cc2)C[C@H]1CO |  | inactive: -6.99% |  |
| COC1CCOC2(CCN(C(=O)C3(c4ccccc4)CC3)CC2)C1 (configuration not stated) | inconclusive: 2.51 µM [inhibitor, full curve, poor fit] |  |  |
| O=C(CC1CCCC1)N1CCCCCC1c1nc(-c2cccnc2)no1 (configuration not stated) | inconclusive: 17.8 µM [inhibitor, single point] |  |  |
| CN1CC[C@H]2CN(C(=O)c3ccccc3-n3cccn3)C[C@@]2(C(=O)O)C1 |  | inactive: 3.85% |  |
| CC(=O)c1ccc(NC(=O)c2nc(-c3ccccc3)n(-c3ccc(C)cc3)n2)cc1 | inconclusive: 11.2 µM [inhibitor, single point] |  |  |

| SMILES | Potency | activity, negative = inhibition | outcome |
| --- | --- | --- | --- |
| CCC(=O)N1Cc2ccccc2CC2(CCCN2C)C1 (configuration not stated) | inconclusive: 15.8 µM [inhibitor, single point] |  |  |
| CC(C)NC(=O)N1CCC(CCOc2ccccc2F)C1 (configuration not stated) |  |  | inactive |
| CC(=O)N1CCN(C(=O)CCc2ccnc(N3CCOCC3)c2)CC1 |  | inactive: 23.6% |  |
| Cc1ccc(NCc2cc3cc4c(cc3n(CC(=O)Nc3ccc(C)cc3)c2=O)OCCO4)cc1 | inconclusive: 12.6 µM [inhibitor, single point] |  |  |
| CN1Cc2cccn2CC1CNC(=O)NC1CCCCC1 (configuration not stated) | inconclusive: 10 µM [inhibitor, single point] |  |  |
| CN(C)CC1(O)CCCN(C(=O)c2ccccc2-c2ncc[nH]2)CC1 (configuration not stated) |  | inactive: -1.37% |  |
| COCCNC(=O)[C@@H]1C[C@@H](O)CN1C1CCN(C(=O)C2(c3ccccc3)CC2)CC1 |  | inactive: -10.7% |  |
| O=C1NCCCCCCN(C(=O)c2ccsc2)[C@H]2C[C@H](c3nc(-c4cnccn4)no3)C[C@@H]12 |  | inactive: -8.49% |  |
| COc1ccccc1OCc1nc2ccccc2n1Cc1ccccc1 | inconclusive: 17.8 µM [inhibitor, single point] |  |  |
| Cc1nc(-c2ccc(F)cc2)n(CC(=O)Nc2cccc(C(F)(F)F)c2)c(=O)c1CCO | inconclusive: 2.51 µM [inhibitor, partial curve, poor fit] |  |  |
| CC(C)Oc1ccccc1CN1CCC([C@@H]2CNC[C@H]2CO)CC1 |  | inactive: -1.14% |  |
| CCOc1ccc(CNc2cc(C)nc3nc(-c4cccc(C)c4)nn23)cc1OC | inconclusive: 17.8 µM [inhibitor, single point] |  |  |
| O=C1NCCCCCN(Cc2cn[nH]c2-c2ccc(F)cc2)[C@H]2CCC[C@@H]12 |  |  | inactive |
| COCCN1CCCCCC(O)c2cc(C(=O)NCCCN3CCCC3=O)ccc21 (configuration not stated) |  |  | inactive |
| COc1ccccc1-c1cn2c(n1)CO[C@@H](CNC(=O)Nc1ccc(F)cc1)C2 | inconclusive: 10 µM [inhibitor, partial curve, poor fit] |  |  |
| N#Cc1ccc(C(=O)N2CCN(c3cc(-c4cccs4)[nH]n3)CC2)cc1 | inconclusive: 1.78 µM [inhibitor, single point] |  |  |
| C[S+](=O)([O-])N1Cc2ccccc2CC2(CCN(CC3CCCC3)C2)C1 (configuration not stated) | inconclusive: 11.2 µM [inhibitor, single point] |  |  |
| O=C(NCCN1CCCCC1)C1(CCO)CCN(Cc2ccccc2)C1 (configuration not stated) | inconclusive: 7.94 µM [inhibitor, single point] |  |  |
| Cc1cccc(CN2CCc3ncc(C(=O)NCCC(C)C)n3CC2)c1 | inconclusive: 31.6 µM [inhibitor, single point] |  |  |
| CC1(C)[C@H]2CC[C@@H](CN[S+](=O)([O-])c3ccccc3)[C@@H]1C2 | active: 11.2 µM |  |  |
| COc1ccccc1C(=O)NCC(c1ccc(N(C)C)cc1)N1CCc2ccccc21 (configuration not stated) | inconclusive: 17.8 µM [inhibitor, single point] |  |  |
